In article PMC4336329 (PLoS ONE, 2015):
The whole screen tested about 310,000 compounds, of which about 14,000 (4.5%) showed an effect of 50% or more. Effects have a minus sign here. The list shows a part of the results.

The compounds below were run against human ether-à-go-go-related gene (hERG) potassium channel (human, UniProt Q12809) (assay: primary screen, population patch clamp on CHO cells stably expressing hERG).
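Note: peak tail current of the secondary pulse compared with the same well before compound.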

Sequence of human ether-à-go-go-related gene (hERG) potassium channel (Q12809 whole entry, looked up): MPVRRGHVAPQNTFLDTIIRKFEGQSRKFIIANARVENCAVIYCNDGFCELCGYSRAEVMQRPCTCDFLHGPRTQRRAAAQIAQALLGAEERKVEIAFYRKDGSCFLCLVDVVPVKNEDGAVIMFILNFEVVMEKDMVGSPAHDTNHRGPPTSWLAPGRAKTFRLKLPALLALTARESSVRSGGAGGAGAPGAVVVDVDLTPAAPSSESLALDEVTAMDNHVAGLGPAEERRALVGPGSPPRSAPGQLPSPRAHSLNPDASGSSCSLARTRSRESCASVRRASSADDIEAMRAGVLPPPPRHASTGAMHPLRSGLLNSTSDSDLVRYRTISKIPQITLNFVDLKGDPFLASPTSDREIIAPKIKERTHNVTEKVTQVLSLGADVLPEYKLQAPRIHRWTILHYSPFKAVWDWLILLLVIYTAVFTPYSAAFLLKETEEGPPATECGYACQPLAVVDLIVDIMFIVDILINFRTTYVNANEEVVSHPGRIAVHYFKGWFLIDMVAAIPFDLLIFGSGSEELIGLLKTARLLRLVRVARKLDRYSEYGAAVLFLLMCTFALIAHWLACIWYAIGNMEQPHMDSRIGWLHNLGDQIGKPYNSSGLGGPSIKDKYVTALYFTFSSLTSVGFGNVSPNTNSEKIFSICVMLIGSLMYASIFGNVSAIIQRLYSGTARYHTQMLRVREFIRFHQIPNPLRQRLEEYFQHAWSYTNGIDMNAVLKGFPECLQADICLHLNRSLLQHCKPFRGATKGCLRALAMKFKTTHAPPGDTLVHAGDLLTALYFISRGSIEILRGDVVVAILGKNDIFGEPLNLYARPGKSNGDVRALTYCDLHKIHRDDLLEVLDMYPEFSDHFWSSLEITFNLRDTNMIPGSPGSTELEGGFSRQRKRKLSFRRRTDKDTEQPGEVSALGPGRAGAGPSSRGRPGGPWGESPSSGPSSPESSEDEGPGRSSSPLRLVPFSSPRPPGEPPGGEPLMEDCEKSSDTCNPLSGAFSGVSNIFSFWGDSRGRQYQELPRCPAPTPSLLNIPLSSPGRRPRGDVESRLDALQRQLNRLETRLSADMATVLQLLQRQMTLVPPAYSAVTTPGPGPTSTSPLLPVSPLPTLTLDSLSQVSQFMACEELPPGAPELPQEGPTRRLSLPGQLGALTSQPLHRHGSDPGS

SMILES | hERG current change (%, negative = inhibition) at 10uM
CCOc1cccc(/C=N/N2CCN(c3ccc(Cl)cc3)CC2)c1O | 15.5%
Cc1ccc(S(=O)(=O)CCC#N)cc1 | 13%
COc1ccc(/C=N/c2oc(-c3ccccc3)cc2C#N)cc1 | 10.5%
O=c1[nH]c(/C=C\c2cccc(O)c2)nc(O)c1[N+](=O)[O-] | 18%
O=C(CN1CCCCC1)Nc1cccc(Cl)c1Cl | -1.14%
O=C(c1cccs1)N(Cc1ccco1)c1nc(-c2ccc(F)cc2)cs1 | -6.95%
O=C(CCS(=O)(=O)c1ccccc1)Nc1nc2cc3c(cc2s1)OCO3 | 8.15%
O=C(CSCc1ccccc1Cl)Nc1ccc(C(=O)O)cc1 | 19.6%
CC(C)(C)CN1CCN(Cc2cc3ccccc3[nH]2)CC1CCO (centres unmarked) | -8.03%
O=C(CCC(=O)N1CCOc2ccc(Cl)cc21)NCCCN1CCC(Cc2ccccc2)CC1 | -75%
O=c1nc2s/c(=C\c3ccco3)c(=O)n2nc1Cc1ccc(F)cc1 | -7.6%
C=C1CCC[C@]2(C)C[C@H]3OC(=O)C(CN4CC(C)OC(C)C4)[C@H]3C[C@@H]12 (some centres unmarked) | -7.12%
CCOC(=O)[C@@H]1[C@H]2COc3cc(OC)ccc3[C@@H]2N2C(=O)N(c3ccc(Cl)cc3)C(=O)[C@@]12C | -3.36%
O=C(c1ccccc1F)N1CCN(c2ncccn2)CC1 | 3.24%
C/C(=N\Nc1nccnc1Cl)c1ccc(Cl)c(Cl)c1 | -5.91%
O=C(Nc1ccccc1C(F)(F)F)N1CCN(C(c2ccccc2)c2ccccc2)CC1 | 15.5%
Cc1cccc(CN2CCN(CC(=O)NCc3ccc(F)cc3)C2=O)c1 | -13.6%
O=C(CNCCc1ccc(Cl)cc1Cl)NCc1ccco1 | -27.2%
O=C(NCCc1ccc(S(=O)(=O)N2CCCC2)cc1)c1cccs1 | -3.23%
CCOc1ccc(C(=O)Nc2cc(C)ccn2)cc1 | -12.2%
CCC1CN(C(=O)N2CCC(C(=O)NCCc3ccc(OC)cc3OC)CC2)c2ccccc2O1 (centres unmarked) | -17.3%
O=C(CNS(=O)(=O)c1ccccc1)Nc1ccc2c(c1)OCO2 | 16%

SMILES | hERG current change (%, negative = inhibition) at 10uM
O=C(N/N=C/c1cc(Br)ccc1O)c1cccc(N2CCCC2=O)c1 | -3.08%
C[n+]1ccccc1/C=C/c1c(F)cccc1F.[I-] | 18.4%
COc1ccc(NC(=O)CC2C(=O)N(c3cccc(OC)c3)C(=O)N2CCC(C)C)cc1 (centres unmarked) | -2.85%
CC(C)c1ccc(NC(=O)CCNS(=O)(=O)c2cccc3nsnc23)cc1 | -3.65%
O=C(O)CCC(=O)N1CCN(c2cccc(Cl)c2)CC1 | 12%
CCOc1ccccc1N(C(=O)Nc1ccc(Cl)cc1)C1=NCCS1 | 10.6%
Cc1cc(C(=O)Nc2c(C)n(C)n(-c3ccccc3)c2=O)cs1 | -1.85%
O=C(c1cc2ccccc2o1)N1CCC(N2CCC(C(=O)N3CCCC3)CC2)CC1 | -55.7%
O=C(NCCO)c1ccc2nc(Cc3cccc(Cl)c3)oc2c1 | -0.51%
CCOC(=O)C(Oc1ccc2c(-c3ccc(OC)cc3)cc(=O)oc2c1C)c1ccccc1 (centres unmarked) | -2.92%
O=Cc1c[nH]c2ccc(S(=O)(=O)N3CCOCC3)cc12 | -10.1%
CN(C)CCCn1c(SCC(=O)Nc2nc(-c3cccc(Br)c3)cs2)nc2ccccc2c1=O | -20.2%
O=[N+]([O-])c1ccc(Cl)cc1NCc1cccnc1 | 4.83%
COc1[nH]c(/N=C/c2ccccc2)c(C#N)c1C#N | 21.2%
O=C(Cc1ccccc1)Nc1ccnn1C1CCN(Cc2ccc(CO)o2)CC1 | 8.53%
C#CCn1c(=NC(=O)c2ccc(S(=O)(=O)N3CCCc4ccccc43)cc2)sc2cc(S(N)(=O)=O)ccc21 | -0.904%
CCOC(=O)C1=C(C)N=c2s/c(=C/c3ccc(OCC(=O)O)cc3)c(=O)n2C1c1ccc(F)cc1 (centres unmarked) | 15.2%
CC(C)C(=O)N1CCN(c2ccccc2NC(=O)c2ccc([N+](=O)[O-])o2)CC1 | -63%
CCc1ccc(OCC(=O)Nc2ccc(S(=O)(=O)Nc3ccccn3)cc2)cc1 | 8.72%
CC(=O)NC(Cc1ccc(C)cc1)C(=O)NC1CCN(C(=O)c2ccc([N+](=O)[O-])cc2)CC1 (centres unmarked) | -23.2%
Cc1ccc(-c2nn3c(C)nnc3c3ccccc23)cc1S(=O)(=O)NCc1ccccc1 | -29.5%
CCOCCCNC(=O)/C(C#N)=C/c1ccc(C(=O)OC)cc1 | -17%
